These results are taken from paper PMC4336329 (PLoS ONE, 2015).

Among all 310,000 compounds or so, about 14,000 (4.5%) showed an effect of 50% or more. The effect is printed as a negative number. This is one part of the list.
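Also: peak tail current of the secondary pulse compared with the same well before compound.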

In this experiment the target is human ether-à-go-go-related gene (hERG) potassium channel (human, UniProt Q12809). Kind of experiment: primary screen, population patch clamp on CHO cells stably expressing hERG.
human ether-à-go-go-related gene (hERG) potassium channel, sequence (Q12809 whole entry, looked up): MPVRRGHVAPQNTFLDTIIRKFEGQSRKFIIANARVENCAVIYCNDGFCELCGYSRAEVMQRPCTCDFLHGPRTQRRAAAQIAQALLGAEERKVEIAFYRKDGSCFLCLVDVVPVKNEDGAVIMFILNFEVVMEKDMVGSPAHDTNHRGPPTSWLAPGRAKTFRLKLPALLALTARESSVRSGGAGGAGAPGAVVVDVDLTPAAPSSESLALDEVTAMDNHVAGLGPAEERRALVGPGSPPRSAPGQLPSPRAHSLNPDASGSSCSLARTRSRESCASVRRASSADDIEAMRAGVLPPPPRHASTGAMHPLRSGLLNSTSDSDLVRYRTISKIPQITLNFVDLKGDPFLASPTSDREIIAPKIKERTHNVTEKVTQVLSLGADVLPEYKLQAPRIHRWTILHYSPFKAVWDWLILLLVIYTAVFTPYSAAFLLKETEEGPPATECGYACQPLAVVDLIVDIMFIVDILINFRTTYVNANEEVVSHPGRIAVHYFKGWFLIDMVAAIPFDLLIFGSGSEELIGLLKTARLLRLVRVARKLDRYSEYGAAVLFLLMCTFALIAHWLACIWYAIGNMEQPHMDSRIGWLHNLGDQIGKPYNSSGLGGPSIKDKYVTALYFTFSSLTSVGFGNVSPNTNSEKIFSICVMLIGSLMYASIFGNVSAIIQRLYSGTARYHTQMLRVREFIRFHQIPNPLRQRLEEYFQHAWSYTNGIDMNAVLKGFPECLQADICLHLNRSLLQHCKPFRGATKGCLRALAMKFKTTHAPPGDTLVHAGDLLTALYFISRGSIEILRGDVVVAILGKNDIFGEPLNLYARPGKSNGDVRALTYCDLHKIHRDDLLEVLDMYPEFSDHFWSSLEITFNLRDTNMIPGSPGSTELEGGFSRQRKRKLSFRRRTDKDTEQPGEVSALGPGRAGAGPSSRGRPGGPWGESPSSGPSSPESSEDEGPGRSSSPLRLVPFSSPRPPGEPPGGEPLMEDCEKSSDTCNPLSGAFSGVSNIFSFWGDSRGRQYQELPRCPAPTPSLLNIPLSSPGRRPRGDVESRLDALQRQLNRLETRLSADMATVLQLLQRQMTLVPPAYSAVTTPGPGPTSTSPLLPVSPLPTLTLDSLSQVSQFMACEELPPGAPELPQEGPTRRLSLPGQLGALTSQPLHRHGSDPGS
Turning to `CCCC1=NN(C(=O)C(=O)Nc2ccc(Br)cc2)C(O)(C(F)(F)F)C1` (stereo not shown), the “hERG current change (%, negative = inhibition) at 10uM” value came to 15.3%.
Then `O=C(Nc1nnc(-c2ccco2)o1)c1ccc(S(=O)(=O)N2CCCC2)cc1`, with 19.2%.
The same measure for `COC(=O)C1=C(c2ccc(F)cc2OCc2ccccc2)C[C@@H]2CC[C@H]1N2C(=O)NCc1ccccc1C(F)(F)F`: 20.9%; for `CCn1c(NCCO)nc2c(c1=O)C(C)(CC)Cc1ccccc1-2` (stereo not shown): 8.74%; for `CC(C)(C)c1ccc(C(=O)NC(=S)Nc2nc3c(s2)CCCC3)cc1`: 27.6%.
The same measure for `CC(=O)c1ccc(S(=O)(=O)Nc2ccc(C(=O)N(C)CC(=O)Nc3cccc(C)c3C)cc2)cc1`: 14.5%; for `C=C(C)c1cccc(C(C)(C)NC(=O)Nc2cc(C)ccc2OC)c1`: 3.48%.
Take `CCCCC(=O)NC(=S)Nc1cc(C(=O)O)ccc1OC`: the “hERG current change (%, negative = inhibition) at 10uM” value worked out at 20.3%.
Consider `Cc1[nH]n(-c2ccccc2)c(=O)c1C(c1cccc([N+](=O)[O-])c1)c1c(C)[nH]n(-c2ccccc2)c1=O`, for which the “hERG current change (%, negative = inhibition) at 10uM” value amounted to 15.1%.
The same measure for `O=C1CC2(CCN(C(=O)c3ccc(F)cc3)CC2)Oc2ccccc21`: -76%; for `COC(=O)c1cc(S(=O)(=O)N2CCCCCC2)cn1C`: -10.5%.
Then `CC(C)NC(=O)COc1coc(CN2CCN(C(=O)c3ccco3)CC2)cc1=O`, with 10.3%; and `Cc1ccc(C(=O)CC(C(=O)O)n2ccc(C)n2)cc1` (stereo not shown), with 6.03%.
Then `CC(=O)NC(Cc1cccc(C)c1)C(=O)NC1CCN(c2ncccc2[N+](=O)[O-])CC1` (stereo not shown), with 0.362%; and `N#Cc1cc2c(nc1SCC(=O)Nc1sc3c(c1C#N)CCC3)CCCCC2`, with -10%; and `CCCn1c(=O)n(N)c2ccccc21`, with -12.2%.
For `O=C(c1cnc2sccn2c1=O)N1CCN(c2ccccc2Cl)CC1`, the “hERG current change (%, negative = inhibition) at 10uM” value is -2.33%.
The same measure for `CCc1cc(/C(Cc2csc(C)n2)=N/O)c(O)cc1O`: 1.05%; for `COc1ccc2ccccc2c1CNCCc1ccccc1.Cl`: -53.1%; for `O=C(NCCCNC(=O)NC1CCCCC1)NC1CCCCC1`: 21.4%.
Then `Cc1n[nH]c(=O)nc1NC1CCCCC1`, with 11.5%; and `O=C(Nc1nc2ccccc2[nH]1)c1ccc([N+](=O)[O-])cc1`, with 41.2%.
The same measure for `Cc1ccccc1N1CCN(C2CCCN(C(=O)COc3ccccc3)C2)CC1` (stereo not shown): -62.7%.
Regarding `O=[N+]([O-])c1cccc(S(=O)(=O)N2CCN(c3ccccn3)CC2)c1`, the “hERG current change (%, negative = inhibition) at 10uM” value stood at 4.57%.
Turning to `COc1ccccc1NC(=O)c1ccc(C)s1`, the “hERG current change (%, negative = inhibition) at 10uM” value is listed as 8.87%.
For `COc1ccc(-n2ncc3c(SCC(=O)N4CCN(c5ccccc5OC)CC4)ncnc32)cc1`, the “hERG current change (%, negative = inhibition) at 10uM” value is on record as -6.29%.
The same measure for `CCn1c(=O)cc(OCC(=O)N2CCN(c3ccc(F)cc3)CC2)c2ccccc21`: -69.8%; for `Cn1nccc1C(=O)NC1CC(C)(C)Cc2c1cnn2-c1ccc(F)cc1` (stereo not shown): -61.4%.
Then `O=C(COC(=O)c1ccncc1)Nc1cc(Cl)c(Cl)cc1Cl`, with -2.04%; and `Fc1ccc(-c2csc(-c3ccncc3)n2)cc1`, with -4.19%.
The same measure for `CC(=O)O[C@H]1C2OC(=O)C(C)=C2[C@@H]2OC(=O)[C@]3(CCC4OC41C)OC23` (stereo partly shown): 18.2%.
With `COC(=O)c1sccc1NC(=O)c1ccc(C)o1`, the “hERG current change (%, negative = inhibition) at 10uM” value was found to be 9.34%.
Then `CN(C)S(=O)(=O)NCC1CCCN(Cc2ccc(-c3ccccc3)cc2)C1` (stereo not shown), with -50.8%; and `Cc1sc(NC(=O)CSc2nnc(-c3ccc(F)cc3)o2)c(C#N)c1C`, with 10%; and `Cc1ccc(CNc2ccc(Cl)cc2[N+](=O)[O-])cc1`, with -4.23%.
The same measure for `Cc1ccc(-c2nc3ncccc3o2)cc1NC(=O)C(C)(C)C`: 16.6%; for `Cc1ccc(-c2noc(C3CCN(S(=O)(=O)c4ccc5c(c4)OCCO5)CC3)n2)o1`: 4.19%.
The same measure for `CCN1CCN(c2ccc(NC(=O)c3cccc(N4CCCC4=O)c3)cc2)CC1`: 23.9%.
On to `O=C(/C=C/c1cccs1)Nc1nncs1`, for which the “hERG current change (%, negative = inhibition) at 10uM” value was 18%.
As to `O=c1cc(NC2CCCCC2)[nH]c(=O)[nH]1`, the “hERG current change (%, negative = inhibition) at 10uM” value stood at 7.02%.
Then `CCCn1ncc(CN2CCC(n3nccc3NC(=O)CCc3ccccc3)CC2)c1C`, with -26.2%.
In the case of `O=C(Nc1nc2ccc(SC(F)F)cc2s1)c1ccc(NS(=O)(=O)c2ccc(F)c(F)c2)cc1`, the “hERG current change (%, negative = inhibition) at 10uM” value is on record as -8.03%.
Take `Cn1cnnc1SCC(=O)Nc1ccc(OC(F)F)cc1`: the “hERG current change (%, negative = inhibition) at 10uM” value worked out at 8.89%.
Then `CCC1Oc2ccccc2N(CC(=O)NCCCN2CCCCC2CC)C1=O` (stereo not shown), with -3.34%; and `O=C(C1CCC(CNc2c(N3CCOCC3)c(=O)c2=O)CC1)N1CCN(c2ccccc2)CC1` (stereo not shown), with 23.8%; and `CCN1CCN(CCOCCOc2ccccc2)CC1.O=C(O)C(=O)O`, with 10.8%.
